PubChem BioAssay AID1159614 (National Center for Advancing Translational Sciences (NCATS), 2016)
Out of some 45,000 compounds screened, about 65 (0.1%) were called active. The call rests on the fitted dose curve; in most records, active means well fitted activation curve with a large enough effect; inconclusive means small, poorly fitted or top-dose-only effect; inactive means no such curve, though single readings can be large or run the other way. The list shows a part of the results.

Molecular target: Galactocerebrosidase (Homo sapiens) (UniProt P54803)
Chain of UniProt P54803 (P54803 whole entry, looked up): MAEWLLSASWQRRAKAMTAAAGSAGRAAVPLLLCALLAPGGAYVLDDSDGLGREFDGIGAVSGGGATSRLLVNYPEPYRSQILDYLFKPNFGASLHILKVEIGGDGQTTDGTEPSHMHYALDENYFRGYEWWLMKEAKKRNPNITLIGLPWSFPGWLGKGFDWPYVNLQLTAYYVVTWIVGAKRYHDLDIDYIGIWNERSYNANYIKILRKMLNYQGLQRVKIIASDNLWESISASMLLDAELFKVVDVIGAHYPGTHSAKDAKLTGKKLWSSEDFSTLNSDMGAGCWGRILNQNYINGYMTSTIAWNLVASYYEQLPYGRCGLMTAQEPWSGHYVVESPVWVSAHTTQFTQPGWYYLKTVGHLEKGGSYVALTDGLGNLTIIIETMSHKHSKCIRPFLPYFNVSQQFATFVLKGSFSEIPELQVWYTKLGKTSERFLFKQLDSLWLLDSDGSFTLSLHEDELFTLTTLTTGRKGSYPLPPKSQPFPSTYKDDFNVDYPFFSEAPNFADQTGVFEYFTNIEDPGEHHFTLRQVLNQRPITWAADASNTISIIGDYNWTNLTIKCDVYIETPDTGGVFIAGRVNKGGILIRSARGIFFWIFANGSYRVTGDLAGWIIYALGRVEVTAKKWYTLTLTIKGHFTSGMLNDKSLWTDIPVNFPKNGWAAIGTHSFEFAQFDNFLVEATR
Assay: A Novel Cell-Based Assay to Identify Small Molecules for B -Galactocerebrosidase; further: 0% is about no effect; nearly all actives have a fitted effect of over 65% in size
Conditions: 145M-Twi-hGALC-G270D cells, HMU-beta-Gal fluorescence, 48 h; series mostly up to 57.5 µM; activation: at the top concentration
In short: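 qHTS, 1536-well; 145M-Twi-hGALC-G270D cells (WT line also made) in DMEM/F12 + 10% FBS; compound incubation on live cells; HMU-β-gal 0.1 mM final, pH 5.2, NaTC; carbonate stop; fluorescence increase = enhanced residual activity.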

activation, inactive:
Cc1cc2c(cc1C)NC(CC(=O)Nc1cccc(C)c1C)C(=O)N2 (stereo not drawn) -6.87%, COc1cc(/C=C/C(=O)O[C@H]2CC[C@]34C[C@]35CC[C@]3(C)[C@@H]([C@H](C)CCC=C(C)C)CC[C@@]3(C)[C@@H]5CC[C@H]4C2(C)C)ccc1O -13.4%, CCOc1ccccc1NC(=O)Cn1c(=O)n(-c2ccc(C)c(C)c2)c(=O)c2c(C)c(C(=O)N(C)C)sc21 -7.97%, Cc1cccc(COc2ccc(-c3cc(C(F)(F)F)n4nc(C)cc4n3)cc2)c1 -1.49%, CCc1ccc(-c2nc3cc(NC(=O)c4ccc(F)cc4)ccc3o2)cc1 -12.7%, Cc1ccc(CNC(=O)CCN2C(=O)C(C)Oc3ccc(C)cc32)cc1 (stereo not drawn) -4.32%, Cc1ccc(Nc2c3c(nc4ccccc24)CCC3)cc1F -33.5%, NNCCc1ccccc1 -18.3%, COc1ccc(OC)c(S(=O)(=O)NCCc2sc(C)nc2C)c1 -16.1%, Cc1c(Cl)cccc1NC(=O)CCS(=O)(=O)c1cccc2nsnc12 -5.94%, CCCCNC(=O)c1ccc(-c2nc(CN3CCc4ccccc43)c(C)o2)cc1 12%, Cc1ccc(NC(=O)CCNS(=O)(=O)c2cccs2)cc1F -9.57%, COc1ccccc1N(CC(=O)NCCSc1ccccc1)S(=O)(=O)c1ccc(C)cc1 -16.3%, COc1cccc(-c2nn(C)c3sc(C(=O)N4CCN(c5cccc(C(F)(F)F)c5)CC4)cc23)c1 -4.27%, Cc1cn2c(=O)cc(COC(=O)COc3ccc(F)cc3)nc2s1 -1.51%, COC1(C(F)(F)F)NC(=O)N(c2ccc(F)cc2)C1=O (stereo not drawn) -13.7%, CSc1ncc2c(n1)-c1ccccc1N(Cc1ccccc1C)S2(=O)=O -4.21%, COc1ccc(-n2c(=O)c3c(c4cc(OC)ccc4n3C)n(Cc3c(F)cccc3Cl)c2=O)cc1 -4.52%, Cc1cccc(-n2c3nc(=O)n(C)c(=O)c-3cc3c(C)nn(-c4ccccc4)c32)c1C -11.2%, COc1cccc(CCNC(=O)c2cnc3sc(N4CCCC4)nn3c2=O)c1 -6.87%, CC1CCc2c(sc3nnn(CC(=O)Nc4ccccc4Cl)c(=O)c23)C1 (stereo not drawn) -13%, Fc1ccc(NCc2nc3ccccc3n2CCOc2ccccc2Cl)cc1 -4.7%, CSc1nc2sc3c(c2c(=O)n1-c1ccc(C)cc1)CCCC3 -5.27%, COc1ccc(Cl)cc1NC(=O)N1CCC2(CC1)Oc1ccccc1C(=O)N2Cc1ccc(F)cc1 -9.33%, COc1ccc(NC(=O)N2CCC(n3c(C)nc4cccnc43)CC2)cc1OC -10.7%, CCOC(=O)C1=C(CN(CC)Cc2ccccc2)NC(=O)NC1c1ccc(Cl)cc1 (stereo not drawn) -7.41%, CCOC(=O)c1cnn(-c2cccc(Cl)c2)c1C1CCN(C(=O)OC(C)(C)C)CC1 -10.9%, Cc1ccc(OCCSc2nc3ccc(NC(=O)COc4ccc(C)cc4)cc3s2)cc1 -3.32%, O=C(CCSCc1ccccc1Cl)NCCc1ccccc1 -2.1%, O=C(Cn1ccn(-c2ccc(F)c(F)c2)c(=O)c1=O)NCc1ccccc1 -17.6%, CCCn1cc(S(=O)(=O)c2ccc(OCC)cc2)c(=O)c2cc(C)ccc21 -18.9%, CCOc1ccc(-c2c(C)nn3c(C)c(C(=O)NC(C)c4ccccc4)cnc23)cc1OCC (stereo not drawn) -15.4%, CCCCC(=O)Nc1cc(-c2cn3cccnc3n2)ccc1C 8.57%, CCOC(=O)c1cc2c(=O)n3ccccc3nc2n(CC2CCCO2)c1=NC(=O)c1ccc(OCC)cc1 (stereo not drawn) -11.1%, CN(Cc1ccccc1)C(=O)c1c[nH]c2ccc(S(=O)(=O)Nc3ccccc3F)cc2c1=O 2.94%, Cc1cc(C)c(NC(=O)c2cc(S(=O)(=O)N3CCCC3)cn2C)c(C)c1 -7.86%, COc1cc(Cl)c(S(=O)(=O)N2CCN(c3c(C)cccc3C)CC2)cc1Cl -13%, Cc1ccc(OCCSc2nc3ccccc3n2CC(=O)N2CCOCC2)cc1C -19.2%, COc1cc2nc(NCCc3ccc(Cl)cc3)n3nc(-c4ccccc4)nc3c2cc1OC 6.53%, COc1ccc(N2CCN(CCCNC(=O)c3sc4ncccc4c3-n3cccc3)CC2)cc1 -13.3%, CC(C)OCCCNC(=O)Cn1c(-c2cccs2)cc2cc(F)ccc21 0.864%, CCOc1cc(C(=O)N2CC(=O)Nc3ccc(F)cc3C2c2ccccc2)cc(OCC)c1OCC (stereo not drawn) -24.5%, COc1ccc(S(=O)(=O)NCC(c2ccco2)S(=O)(=O)c2cccs2)cc1OC (stereo not drawn) -18.7%, CCOc1cc(-c2cc(C(=O)O)c3c(-c4ccccc4)[nH]nc3n2)ccc1O -6.9%, COc1cc(C(=O)OCc2cc(=O)n3ccsc3n2)cc(OC)c1OC -9.54%, CCCCCCCCCCCCCCCC(=O)OC(C)C -19.7%, CCN(C(=O)c1nn(C)c2c1CSc1ccccc1-2)c1cccc(C)c1 -7.65%, COc1ccc(NC(=O)Cn2nc(C)c3c(C)n(-c4ccccc4)nc3c2=O)cc1OC 9.41%, CCC1=Nc2cc(C(=O)N3CCC(C)CC3)ccc2Sc2ccc(C)cc21 -12.5%, Cc1ccc(C)c(NC(=O)C2CCCN2S(=O)(=O)c2ccc3c(c2)CCCC(=O)N3)c1 (stereo not drawn) -30.6%, COc1ccc(-c2noc(CNC(=O)c3ccc(OC)cc3OC)n2)cc1 -2.15%, CCCC(=O)OCc1cnc(C)c2oc(=O)c(C(=O)Nc3ccc(F)cc3C)cc12 -11.5%, Cc1cccc(CNC(=O)C2CCN(S(=O)(=O)c3cccc4nonc34)CC2)c1 -6.85%, CCOC(=O)c1c(NC(=O)COc2ccc(OC)cc2)sc(C(=O)N(CC)CC)c1C -17.5%, CCCCN(CC)CCNC(=O)c1nn(-c2ccc(OC)cc2)c(=O)c2c1c1ccccc1n2C -11.4%, COc1cccc(-c2noc(COc3cccc(C)c3C)n2)c1 -12.3%, CCOc1ccc(CCNC(=O)C2CC(=O)N(CCc3ccc(OC)c(OC)c3)C2)cc1OCC (stereo not drawn) -21.3%, CCN(CC)CCCNC(=O)c1ccc2c(c1)NC(=O)C(CS(=O)(=O)Cc1ccc(F)cc1Cl)N2 (stereo not drawn) -5.65%, CCOC(=O)c1cccc(NC(=O)Cn2cnc3nc4c(cc3c2=O)CCCC4)c1 -19.8%, COc1ccc(N2CC(c3nc(-c4ccccc4C)no3)CC2=O)cc1Cl (stereo not drawn) -19%, CCNC(=O)NCCCOc1cccc(CN2CCCCC2)c1 5.43%, CCc1ccc(NS(=O)(=O)c2ccc3[nH]cc(C(=O)NCCc4ccccc4)c(=O)c3c2)cc1 5.73%, COCCNC(=O)c1sc2nc3n(c(=O)c2c1C)CCC3 -21.2%, CN1CCN(c2ccc(-c3nc(-c4ccccc4)no3)cc2[N+](=O)[O-])CC1 -9.77%, Cc1cccc(CCNC(=O)CCc2c(C)nc3c(-c4ccc(F)cc4)c(C)nn3c2C)c1 -16.6%, COC(=O)c1ccc(NC(=O)C(c2ccccc2)N2Cc3ccccc3C2=O)cc1 (stereo not drawn) -14.7%, Cc1nc(-c2ccc(Cl)cc2)sc1CCNC(=O)C(=O)Nc1ccccc1C#N -8.15%, Cc1ccc(-c2onc(C)c2C)cc1S(=O)(=O)N1CCc2ccccc21 15.7%, COc1ccc(NC(=O)Cn2c(SCc3c(F)cccc3Cl)nc3ccncc32)cc1OC -9.14%, CCCc1ccc(OC(=O)c2sc3ncn(Cc4cccc(F)c4)c(=O)c3c2C)cc1 -7.76%, CCCCN(C(=O)Nc1ccc(OCC)cc1)C1CCN(C(C)=O)CC1 -3.89%, COCCn1c(SCC(=O)Nc2ccc(Br)cc2)nc2c([nH]c3ccccc32)c1=O -11.5%, Cc1cc(C)cc(NC(=O)C2CCCN(c3nnc(-n4c(C)ccc4C)s3)C2)c1 (stereo not drawn) -6.74%, COc1ccc(N2CCN(C(=O)c3cc4c(s3)-c3c(C)cccc3OC4)CC2)cc1 -24.6%, COc1ccccc1CSc1nc2n(n1)C(c1ccccc1)C(C(=O)Nc1ccc(C)cc1)=C(C)N2 (stereo not drawn) -12.1%, CCC(Sc1nc2n[nH]c(C)c2c(=N)n1-c1ccc(Br)cc1)C(=O)N(CC)CC (stereo not drawn) -30.9%, CCOC(=O)c1c(S(=O)(=O)N2CCN(c3cc(Cl)ccc3C)CC2)c(C)n(C)c1C -22%, Cc1ccc(NC(=O)C2CCCN(S(=O)(=O)c3ccc(C)cc3)C2)cc1 (stereo not drawn) -9.61%, CCN(CC)c1ccc(NC(=O)C2CCCN(S(=O)(=O)c3ccc4c(c3)oc(=O)n4C)C2)c(C)c1 (stereo not drawn) -1.62%, COC(=O)/C=C(/C)N -6.02%, Cc1ccc(NC(=O)Cn2nc(-c3ccc(Cl)cc3)c3ccccc3c2=O)cc1 -10.9%, COc1ccc(NC(=O)Cn2ncc3c4ccccc4n(Cc4ccccc4)c3c2=O)cc1OC -8.54%, COc1cc(NS(=O)(=O)c2ccc3c(c2)OCC(C(=O)N2CCCC2)O3)cc(OC)c1 (stereo not drawn) -13.2%, COc1ccccc1-c1ncnn1-c1sc2c(c1C#N)CCCCC2 -25.4%, O=c1oc2c(F)cc(F)cc2cc1S(=O)(=O)c1ccc(F)cc1 -16.2%, Cc1ccc(Cc2nc3ccccc3nc2SCC(=O)N2CCCCC2)cc1 -10.5%, CCOc1ccccc1NC(=O)c1c(NCc2ccc(C)o2)sc2c1CCCCC2 -18.2%, Cc1nc(C)c(CCNS(=O)(=O)c2ccc(C)c(C)c2)s1 -39.4%, CCOc1ccc(N(CC)C(=O)c2cc3c(=O)oc4ccccc4c3s2)cc1 -4.56%, CCOc1ccc(CN2CCN(S(=O)(=O)c3ccc(Cl)cc3)CC2)cc1 -7.05%, CCOc1ccc(-c2nonc2NC(=O)c2oc3ccc(Cl)cc3c2C)cc1 -7.11%, Cc1cccc(NC(=O)C(=O)NCC(c2cccnc2)N2CCc3ccccc32)c1C (stereo not drawn) -14.4%, CCOC(=O)c1cc(=O)c2c(OCC(COc3cccc4oc(C(=O)OCC)cc(=O)c34)OC(=O)[C@@H](N)CCCCN)cccc2o1 -5%, Cc1oc(-c2ccccc2F)nc1CN1CCC(C(=O)NCCc2ccc(Cl)cc2)CC1 -22.7%, O=C(Cn1cc(S(=O)(=O)c2ccc(F)cc2)c(=O)c2cc3c(cc21)OCO3)Nc1ccccc1 -6.31%, Cc1ccn2c(=O)c(C(=O)Nc3ccc(F)c(C(F)(F)F)c3)cnc2c1 -7.78%, CC1=C(C(=O)Nc2ccc(C)cc2C)C(CC(C)C)n2nc(SCc3ccccc3C)nc2N1 (stereo not drawn) -21.6%, COC(=O)c1ccccc1NC(=O)CCCn1nc(C)c2sc3ccccc3c2c1=O -7.92%
